{"source": "ChEMBL document CHEMBL3871290", "about": "“3-Cyano-6-(5-methyl-3-pyrazoloamino) pyridines (Part 2): A dual inhibitor of Aurora kinase and tubulin polymerization” (Bioorg Med Chem Lett, 2016)", "key": {"[1]": {"tested_on": "Cc1ccc(OCCNc2nc(Nc3cc(C)[nH]n3)cc(C)c2C#N)cn1", "conditions": "Homo sapiens"}, "[2]": {"tested_on": "Cc1ccc(OCCNc2nc(Nc3cc(C)[nH]n3)cc(C)c2C#N)cn1", "conditions": "Homo sapiens", "remark": "listed apart in the source"}}}
{"substance": "Fibroblast growth factor receptor 1 (Homo sapiens) (sequence not shown)", "values": [{"measurement": "Km", "setting": "[1]", "value": 200, "unit": "µM"}]}
{"substance": "Vascular endothelial growth factor receptor 2 (Homo sapiens) (sequence not shown)", "values": [{"measurement": "Km", "setting": "[2]", "value": 90, "unit": "µM"}]}
